# Source: the supplement of paper PMC8728848
# This is one part of the list.
# B1: cupB6 (Pseudomonas aeruginosa), Q02SP7 (protein)
# chain: MSMRLFPGRVSLRRRPGAQARQALVLGLCCLTGGQAWALNEVALNCSFGNGKGLPWRVVNELTSGTAKGTVLFARPVSLFLSYKPQASQEAHELVLGGNWSGVGYPGPYGTVASDVKGIGYRISVDAQDGVKRVIPVDNQPHALDKRVTSFSGSTTSDYLQELVLTVDPGELPAGDLKVTSVSGSATLNLWAVDRLKGEASIGSVLAVPADNYPTGVCRKPYSLIGPASIAIGGGPPPPPIPKKCKVEVGREINVKLGSVALKNFPRVNDTSTERSFDISLSECAALAKPEIAFRDKYVSAQQADPTILSLKSGGAAGFGIVVKNGLDQQRIRFDGTPYPMRRVGDSADLPLSAAYIRIGAEGELKAGVADGAAEFTFTFP
# Assays:
# Experiment in all cases: glycan array binding signal (z-score within array); higher = stronger binding
# Conditions in all cases: glycan notation: IUPAC condensed, linker removed
# [1] = biological target: Fuc(a1-3)[Gal3S(b1-4)]GlcNAc
# Procedure, shortened: (§1)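 The binding signal is a Z-score computed within each array and averaged over linkers. Arrays of the same protein sequence at different concentrations or buffers were also averaged together. Data originate from 3228 arrays in the Consortium for Functional Glycomics database, kept only where the protein sequence was available.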
# [2] = biological target: Fuc(a1-3)[Gal3S(b1-4)]GlcNAc6S
# Procedure, shortened: as §1
# [3] = biological target: Fuc(a1-3)[GalNAc(b1-4)]GlcNAc
# Procedure, shortened: as §1
# Fuc(a1-4)GlcNAc = biological target: Fuc(a1-4)GlcNAc
# Procedure, shortened: as §1
# Fuc(b1-3)GlcNAc = biological target: Fuc(b1-3)GlcNAc
# Procedure, shortened: as §1
# Gal(a1-2)Gal = biological target: Gal(a1-2)Gal
# Procedure, shortened: as §1
# Gal(a1-3)Gal = biological target: Gal(a1-3)Gal
# Procedure, shortened: as §1
# Gal(a1-3)Gal(b1-3)GlcNAc = biological target: Gal(a1-3)Gal(b1-3)GlcNAc
# Procedure, shortened: as §1
# [4] = biological target: Gal(a1-3)Gal(b1-3)GlcNAc(b1-2)Man(a1-3)[Gal(a1-3)Gal(b1-3)GlcNAc(b1-2)Man(a1-6)]Man(b1-4)GlcNAc(b1-4)GlcNAc
# Procedure, shortened: as §1
# [5] = biological target: Gal(a1-3)Gal(b1-3)[Fuc(a1-4)]GlcNAc(b1-2)Man(a1-3)[Gal(a1-3)Gal(b1-3)[Fuc(a1-4)]GlcNAc(b1-2)Man(a1-6)]Man(b1-4)GlcNAc(b1-4)GlcNAc
# Procedure, shortened: as §1
# Gal(a1-3)Gal(b1-4)Glc = biological target: Gal(a1-3)Gal(b1-4)Glc
# Procedure, shortened: as §1
# Gal(a1-3)Gal(b1-4)GlcNAc = biological target: Gal(a1-3)Gal(b1-4)GlcNAc
# Procedure, shortened: as §1
# [6] = biological target: Gal(a1-3)Gal(b1-4)GlcNAc(b1-3)GalNAc
# Procedure, shortened: as §1
# [7] = biological target: Gal(a1-3)Gal(b1-4)[Fuc(a1-3)]GlcNAc
# Procedure, shortened: as §1
# [8] = biological target: Gal(a1-3)Gal(b1-4)[Fuc(a1-3)]GlcNAc(b1-2)Man(a1-3)[Gal(a1-3)Gal(b1-4)[Fuc(a1-3)]GlcNAc(b1-2)Man(a1-6)]Man(b1-4)GlcNAc(b1-4)GlcNAc
# Procedure, shortened: as §1
# Gal(a1-3)GalNAc = biological target: Gal(a1-3)GalNAc
# Procedure, shortened: as §1
# [9] = biological target: Gal(a1-3)[Gal(a1-4)]Gal(b1-4)GlcNAc
# Procedure, shortened: as §1
# [10] = biological target: Gal(a1-4)Gal(b1-3)GlcNAc(b1-2)Man(a1-3)[Gal(a1-4)Gal(b1-3)GlcNAc(b1-2)Man(a1-6)]Man(b1-4)GlcNAc(b1-4)GlcNAc
# Procedure, shortened: as §1
# Gal(a1-4)Gal(b1-4)Glc = biological target: Gal(a1-4)Gal(b1-4)Glc
# Procedure, shortened: as §1
# Gal(a1-4)Gal(b1-4)GlcNAc = biological target: Gal(a1-4)Gal(b1-4)GlcNAc
# Procedure, shortened: as §1
# [11] = biological target: Gal(a1-4)Gal(b1-4)GlcNAc(b1-2)Man(a1-3)[Gal(a1-4)Gal(b1-4)GlcNAc(b1-2)Man(a1-6)]Man(b1-4)GlcNAc(b1-4)GlcNAc
# Procedure, shortened: as §1
# [12] = biological target: Gal(a1-4)Gal(b1-4)GlcNAc(b1-3)Gal(b1-4)Glc
# Procedure, shortened: as §1
# Gal(a1-4)GlcNAc = biological target: Gal(a1-4)GlcNAc
# Procedure, shortened: as §1
# Gal(a1-6)Glc = biological target: Gal(a1-6)Glc
# Procedure, shortened: as §1
# Gal(b1-2)Gal = biological target: Gal(b1-2)Gal
# Procedure, shortened: as §1
# Gal(b1-3)Gal = biological target: Gal(b1-3)Gal
# Procedure, shortened: as §1
# Gal(b1-3)Gal(b1-4)GlcNAc = biological target: Gal(b1-3)Gal(b1-4)GlcNAc
# Procedure, shortened: as §1
# [13] = biological target: Gal(b1-3)Gal(b1-4)GlcNAc(b1-2)Man(a1-3)[Gal(b1-3)Gal(b1-4)GlcNAc(b1-2)Man(a1-6)]Man(b1-4)GlcNAc(b1-4)GlcNAc
# Procedure, shortened: as §1
# Gal(b1-3)GalNAc = biological target: Gal(b1-3)GalNAc
# Procedure, shortened: as §1
# [14] = biological target: Gal(b1-3)GalNAc(a1-3)[Fuc(a1-2)]Gal(b1-4)Glc
# Procedure, shortened: as §1
binder,measurement,setting,value
B1,glycan array binding signal (z-score),[1],-0.135
same,glycan array binding signal (z-score),[2],0.36
same,glycan array binding signal (z-score),[3],0.033
same,glycan array binding signal (z-score),Fuc(a1-4)GlcNAc,-0.086
same,glycan array binding signal (z-score),Fuc(b1-3)GlcNAc,-0.163
same,glycan array binding signal (z-score),Gal(a1-2)Gal,-0.079
same,glycan array binding signal (z-score),Gal(a1-3)Gal,-0.05
same,glycan array binding signal (z-score),Gal(a1-3)Gal(b1-3)GlcNAc,-0.086
same,glycan array binding signal (z-score),[4],0.296
same,glycan array binding signal (z-score),[5],0.113
same,glycan array binding signal (z-score),Gal(a1-3)Gal(b1-4)Glc,-0.1
same,glycan array binding signal (z-score),Gal(a1-3)Gal(b1-4)GlcNAc,-0.158
same,glycan array binding signal (z-score),[6],0.099
same,glycan array binding signal (z-score),[7],-0.196
same,glycan array binding signal (z-score),[8],0.01
same,glycan array binding signal (z-score),Gal(a1-3)GalNAc,-0.032
same,glycan array binding signal (z-score),[9],0.019
same,glycan array binding signal (z-score),[10],-0.05
same,glycan array binding signal (z-score),Gal(a1-4)Gal(b1-4)Glc,-0.036
same,glycan array binding signal (z-score),Gal(a1-4)Gal(b1-4)GlcNAc,-0.192
same,glycan array binding signal (z-score),[11],0.472
same,glycan array binding signal (z-score),[12],0.037
same,glycan array binding signal (z-score),Gal(a1-4)GlcNAc,-0.117
same,glycan array binding signal (z-score),Gal(a1-6)Glc,-0.09
same,glycan array binding signal (z-score),Gal(b1-2)Gal,0.042
same,glycan array binding signal (z-score),Gal(b1-3)Gal,0.029
same,glycan array binding signal (z-score),Gal(b1-3)Gal(b1-4)GlcNAc,0.043
same,glycan array binding signal (z-score),[13],-0.05
same,glycan array binding signal (z-score),Gal(b1-3)GalNAc,0.011
same,glycan array binding signal (z-score),[14],0.021
